System: Vcap cells (androgen receptor (+) prostate cancer cells)
Experiment: CTG cell proliferation assay (CellTiter-Glo), compounds alone or in combination
Conditions: Vcap cell survival, without B001, summary in words

SMILES | effect of tested compound in combination with the other therapeutic agents (prednisone, Galeterone, Abiraterone acetate, ODM-201)
CC1(C)C(=O)N(c2ccc(C#N)c(C(F)(F)F)c2F)C(=S)N1c1ccc(CCCC#N)c(F)c1 [AR2-4] | did not improve significantly
CC1(C)C(=O)N(c2ccc(C#N)c(C(F)(F)F)c2)C(=S)N1c1ccc(OC[C@@H](O)CO)cc1 [AR3-3] | did not improve significantly
